# Source: PMC6919601, “Identification of Plasmodium dipeptidyl aminopeptidase allosteric inhibitors by high throughput screening” (PLoS ONE, 2019)
# In all, about 110,000 compounds went through this assay and about 230 (0.21%) showed an effect of 50% or more. This is one part of the list.
# Biological target: DPAP1 (Plasmodium falciparum, UniProt Q8IIJ9)
# Experiment: primary screen, percent inhibition; read by cleavage of a fluorogenic dipeptide substrate; higher = more effect of the substance
# Parameters: species or system P. falciparum D10 trophozoite lysates; single well
# 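Note: 30 min substrate incubation versus DMSO and 10 µM JCP410 controls.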
# Sequence of DPAP1 (Q8IIJ9 whole entry, looked up): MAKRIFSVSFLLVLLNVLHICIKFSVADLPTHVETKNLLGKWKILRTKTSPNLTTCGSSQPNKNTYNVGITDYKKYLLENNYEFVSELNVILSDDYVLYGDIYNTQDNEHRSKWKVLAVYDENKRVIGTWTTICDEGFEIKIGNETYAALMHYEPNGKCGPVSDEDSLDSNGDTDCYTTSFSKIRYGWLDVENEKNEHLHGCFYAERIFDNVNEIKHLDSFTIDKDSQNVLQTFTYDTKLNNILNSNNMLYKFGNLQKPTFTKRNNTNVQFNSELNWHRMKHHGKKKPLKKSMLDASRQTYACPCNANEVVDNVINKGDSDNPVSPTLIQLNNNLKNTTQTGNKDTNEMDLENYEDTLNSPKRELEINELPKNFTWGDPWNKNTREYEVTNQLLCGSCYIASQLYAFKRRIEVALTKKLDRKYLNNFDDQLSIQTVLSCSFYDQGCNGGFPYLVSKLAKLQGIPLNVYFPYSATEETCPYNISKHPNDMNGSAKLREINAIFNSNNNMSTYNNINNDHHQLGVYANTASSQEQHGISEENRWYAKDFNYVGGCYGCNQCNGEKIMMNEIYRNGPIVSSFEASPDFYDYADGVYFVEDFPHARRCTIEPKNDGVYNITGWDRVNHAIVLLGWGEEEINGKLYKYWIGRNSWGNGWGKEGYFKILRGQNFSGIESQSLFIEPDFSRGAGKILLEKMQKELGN
row,SMILES,% Inhibition @ 10 uM
1,CC(=O)Nc1ccc(OCCO)c(OCCO)c1,-3.92%
2,O=C1Nc2ccccc2/C1=C/C(=O)c1ccc(F)cc1,-1.5%
3,CC(C)(C)c1ccc(S(=O)(=O)N2CCCCC2C(=O)O)cc1 (stereo not drawn),-2.49%
4,CCOC(=O)C1=C(CC)OC(N)=C(C#N)C1c1ccc(F)cc1 (stereo not drawn),1.75%
5,CN1C2=CC(=O)CCN2c2ccccc21,-7.7%
6,CCOC(=O)c1c(CN2CCOCC2)n(C)c2cc(Br)c(OC)cc12,-4.96%
7,O=C(NC1(C(F)(F)F)C(=O)Nc2c1c(=O)[nH]c(=O)n2-c1ccc(Cl)cc1)c1cccnc1 (stereo not drawn),5.24%
8,c1ccc2c(Cc3nn[nH]n3)c[nH]c2c1,85%
9,Cc1[nH]c(-c2ccc(F)cc2)cc1C(=O)NCCc1ccc(S(N)(=O)=O)cc1,3.05%
10,CCCn1c2ccccc2c2nnc(SC(CC)C(=O)Nc3cc(C)on3)nc21 (stereo not drawn),-5.08%
11,CN(C1CCCCC1)S(=O)(=O)c1ccc2nc(O)cc(C(=O)NCCc3ccccc3)c2c1,-1.96%
12,COc1cccc(/C=C2\NC(=O)N(Cc3ccc(C)cc3)C2=O)c1OC(C)C,-7.89%
13,O=C1CC(c2cccc(F)c2)c2c(O)nc3nc4ccccc4n3c2N1 (stereo not drawn),-2.05%
14,COc1cc(/C=C2/C(=N)N3OC(C)=CC3=NC2=O)ccc1OCc1ccc(F)cc1,3.63%
15,O=C(NC(C(=O)O)C12CC3CC(CC(C3)C1)C2)c1ccccc1F (stereo not drawn),-1.42%
16,CC(C)NC(=O)c1ccc(CS(=O)Cc2ccccc2Cl)o1 (stereo not drawn),7.38%
17,COc1ccc(S(=O)(=O)N(C)CC(=O)Nc2c(F)cccc2F)cc1,-0.67%
18,CC(C)Oc1ccc(S(=O)(=O)N(C(C)C)C(C)C)cn1,4.83%
19,Cn1nc(Oc2nc(N3CCOCC3)nc(N3CCOCC3)n2)ccc1=O,3.73%
20,CCn1ncc(C2C3=C(O)CCCC3=NC(C)=C2C(=O)Nc2ccc(C)cn2)c1C (stereo not drawn),2.51%
21,CC(=O)NCc1ccc(C(C)(C)C)s1,11.8%
22,O=C(CSc1nc2nncc-2c(O)n1-c1ccccc1)Nc1nc(-c2ccccc2)ns1,-4.43%
23,CCN1CCC(N(C)Cc2ccccc2)CC1,3.68%
24,O=C(COc1ccccc1)Nc1cc(Cl)ccc1Cl,-3.03%
25,O=C(CN1CCN(c2ccccn2)CC1)Nc1ccc(F)c(F)c1,2.38%

row,SMILES,% Inhibition @ 10 uM
1,CCOC(=O)c1cnc2c(Cl)c(Cl)ccc2c1NCCOC(=O)c1cccnc1,-5.62%
2,COc1ccc(C2=C(C)C(C#Cc3ccccc3)c3ccccc3O2)cc1 (stereo not drawn),-0.233%
3,O=C(c1cc2c(s1)-c1ccc(Cl)cc1S(=O)(=O)C2)N1CCN(c2ncccn2)CC1,-6.33%
4,COc1ccc(NC(=O)C(CC(C)C)N2C(=O)c3ccccc3C2=O)cc1 (stereo not drawn),-4.82%
5,COc1ccc(-c2cn3c(n2)sc2cc(C(=O)N4CCOCC4)ccc23)cc1,15.1%
6,CSc1ncccc1C(=O)Nc1c(C)nn(C)c1C,-5.03%
7,CCCCOc1ccc(C(C)NC(=O)CSCc2nc(-c3ccc(OC)cc3)oc2C)cc1 (stereo not drawn),-0.971%
8,CNC(=O)C1CC(=O)N(Cc2ccc(Cl)cc2)/C(=N/c2ccc(OC)cc2)S1 (stereo not drawn),3.17%
9,COCCN1C(=O)/C(=C/c2cc(Br)ccc2O)S/C1=N\c1ccccc1,17.6%
10,O=[N+]([O-])c1cccc(CN2CCc3ccccc3C2)c1,1.63%
11,CCOc1cc(C(=O)Nc2ccc(Cl)cc2F)cc(OCC)c1OCC,0.163%
12,O=C(Nc1ncccn1)C1c2ccccc2Oc2ccccc21,-3.77%
13,CCOc1ccc(/C=c2/oc3cccc4c(OC)ccc(c2=O)c34)cc1,-4.93%
14,O=C(Nc1cccc2ncccc12)c1cccs1,8.19%
15,CCCCCC1=NN2C(=O)CC(=O)N=C2S1,1.88%
16,N#Cc1c(NC(=O)c2cc(-c3ccc(O)cc3)on2)sc2c1CCC2,6.87%
17,CCOc1ccc2ncc(C(=O)c3ccc(C)cc3)c(N3CCCC3)c2c1,-8.57%
18,COc1ccc(N(CC(=O)N2CCOCC2)S(C)(=O)=O)cc1Cl,-7.97%
19,COC(=O)C1=C(C)NC(=O)CC1c1ccncc1 (stereo not drawn),-3.27%
20,COC(=O)c1ccc(-n2cccc2)cc1,-3.93%
21,COc1ccc(C(C(=O)O)(c2ccccc2)c2ccccc2)cc1OC,-0.703%
22,CCCCCCNC(=O)CCc1c(C)nc2c(-c3ccccc3)c(C)nn2c1C,1.26%
23,O=Cc1[nH]c(-c2ccccc2)c2ccccc12,-3.5%
24,CN(C)Cc1c(N)cccc1O,-1.86%
25,CCOC(=O)c1ccc(NC(=O)c2ccc(OC)cc2)cc1,0.00178%

row,SMILES,% Inhibition @ 10 uM
1,CC1CCN(S(=O)(=O)c2nnc(NC(=O)c3cccc4ccccc34)s2)CC1,-5.37%
2,Cc1cccc(C)c1N1CCN(S(=O)(=O)N(C)C)CC1,5.03%
3,Cc1cc(O)c2c(c1)OC(C)(C)C1=C2CC(C)CC1 (stereo not drawn),1.7%
4,CCCNC(=O)C1CCCN(c2nn3c(=O)cc(C)nc3s2)C1 (stereo not drawn),4.55%
5,O=C(COCc1cc(-c2ccc3c(c2)OCO3)on1)N1CCOCC1,2.37%
6,COc1cc(C)c(S(=O)(=O)NCCOc2ccccc2)cc1C(C)C,2.77%
7,C/C(Cl)=C/Cn1c(=O)c2c(nc(N3CCCCC3)n2C)n(C)c1=O,-0.988%
8,CC(Sc1nc(-c2ccccc2)cc(C(F)(F)F)n1)C(=O)N1CCCC1 (stereo not drawn),-0.958%
9,CC1SC2(OC1=O)C1CC3CC(C1)CC2C3 (stereo not drawn),1.67%
10,C=CCN(C#N)c1nc(NC(C)C)nc(NC(C)C)n1,5.55%
11,CCc1c(C)c2ccc(OC)c(C)c2oc1=O,-0.597%
12,Cc1ccccc1Cn1c(C2CCCO2)nc2ccccc21 (stereo not drawn),5.29%
13,CCC(NC(=O)[C@H](CC1CCCCC1)/N=C(\NS(C)(=O)=O)N1CCCC1)C(=O)c1nc2ccccc2o1 (stereo partly drawn),-6.56%
14,CC(C)(C)NS(=O)(=O)c1ccc2c(c1)C(=O)c1ccccc1C2=O,-0.128%
15,CCN1CCN(c2oc(/C=C/c3cccc(OC)c3)nc2C#N)CC1,0.895%
16,CCCCN1C(=O)C2Cc3c([nH]c4ccccc34)C(c3cc(Br)ccc3O)N2C1=O (stereo not drawn),8.01%
17,COc1ccccc1NC(=O)NCC1(C)CC(NC(=O)Nc2ccccc2OC)CC(C)(C)C1 (stereo not drawn),1.43%
18,Cc1ccc(SCCNC(=O)CN(c2cc(Cl)cc(Cl)c2)S(C)(=O)=O)cc1,-2.22%
19,CCn1cc(/C=C(\NC(=O)c2ccco2)C(=O)NC(C)C)c2ccccc21,1.64%
20,N#CCNC(=O)[C@H](CS(=O)(=O)Cc1ccccc1)/N=C/NS(=O)(=O)c1ccccc1,0.079%
21,COc1cc(/C=C2\SC(=O)N(CC(=O)N3CCOCC3)C2=O)ccc1O,1.15%
22,CN1CC=C(c2noc(CCC(=O)Nc3cccnc3Cl)n2)CC1,-1.06%
23,Cc1cccc(NC(=O)COc2ccc(S(=O)(=O)NC(C)C)cc2)c1,1.39%
24,OC1=C2C(=Nc3nn(-c4ccccc4)c(O)c3C2c2ccc3c(c2)OCO3)CCC1 (stereo not drawn),2.1%
25,CN(C(=O)c1cccs1)c1ccccc1C(=O)O,-8.28%

row,SMILES,% Inhibition @ 10 uM
1,O=C1OC(/C=C/c2cccc(Cl)c2Cl)=NC/1=C\c1coc2ccccc2c1=O,5.17%
2,CC(C)Nc1nc2c(S(=O)(=O)c3ccc(Cl)cc3)nnn2c2ccsc12,-5.26%
3,CC1(c2ccccc2)OC(=O)C(=Cc2c[nH]c3ccccc23)C(=O)O1 (stereo not drawn),3.16%
4,CC1(C)CC2=NC(S)=C(C#N)C(c3cccnc3)C2=C(O)C1 (stereo not drawn),67.3%
5,CCOc1ccc(CNC(=O)Cn2ccc3cc(S(=O)(=O)N4CCCC4)ccc32)cc1,-5.83%
6,COc1cc(C(=O)Nc2sc3c(c2C(=O)O)CCC(C)C3)cc(OC)c1OC (stereo not drawn),3.46%
7,CCC(=O)c1cn(CC(=O)O)c2ccccc12,-5%
8,O=C1C(Nc2cccc(C(F)(F)F)c2)=C(N2CCOCC2)C(=O)c2ccccc21,-3.63%
9,COc1ccc(-n2c3c(c(=O)[nH]c2=O)C(NC(=O)c2ccccc2F)(C(F)(F)F)C(=O)N3)cc1 (stereo not drawn),1.36%
10,CCOC(=O)CSc1nc(C2CC2)cc(-c2ccc(F)cc2)c1C#N,5.64%
11,COc1cc(OC)cc(C(=O)N2CCN(S(=O)(=O)c3ccc(Cl)cc3)CC2)c1,-1.6%
12,CC(C)(C)C(=O)C1=C(O)C(=O)N(Cc2ccccc2)C1c1ccccc1F (stereo not drawn),-0.884%
13,c1ccc(-c2nc3c4ccccc4nc(N4CCN(C5CCCCC5)CC4)n3n2)cc1,-2.42%
14,CCCCSc1nc2cc(C)ccc2n1C,1.84%
15,O=C(c1[nH]c2ccccc2c1Sc1ccc(Cl)cc1)N1CCC2(CC1)OCCO2,-3.1%
16,Fc1ccccc1N1CCN(CC(c2ccccc2)c2ccccc2)CC1,-2.21%
17,Cc1cc(-c2ccc(C)c(S(=O)(=O)N(Cc3ccccc3)C(C)C)c2)on1,0.098%
18,O=C(CCn1nc(-c2ccccc2)ccc1=O)N1CCCC1,-5.43%
19,COc1cc(OC)cc(C(=O)Nc2ccc(F)cc2F)c1,1.04%
20,COCCCNC(=O)c1ccc(CS(=O)Cc2ccc(C)cc2)o1 (stereo not drawn),-5.43%
21,c1ccc(CN2CCC(N3CCCCCCC3)CC2)cc1,0.472%
22,O=C(C(Cc1ccccc1)N1C(=O)C2C3c4ccccc4C(c4ccccc43)C2C1=O)N1CCCCC1 (stereo not drawn),2.38%
23,CCCCNC(=O)C1C2C=CC(C2)C1C(=O)O (stereo not drawn),0.512%
24,COCCNC(=S)N(CCc1c(C)[nH]c2ccc(OC)cc12)Cc1ccccn1,-4.14%
